Test results as given in the supplement of paper PMC4967469.
The IC50 comes from the fitted curve, where viability falls to half of the control; a limit (>, <) means that the fit lies beyond the doses tested. For AUC the same curve is integrated over the 256-fold range of doses and scaled to a fraction; the more sensitive the line, the further below 1. An inferred top dose comes from the curve model; the source does not state it.

compound: Cn1cc(C2=C(c3cn(C4CCN(Cc5ccccn5)CC4)c4ccccc34)C(=O)NC2=O)c2ccccc21 [LY317615]; assay: Viability of human cancer cell lines after 72 h of drug (GDSC screen); conditions: top dose inferred
Procedure: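 Human cancer cell lines in 384-well plates, medium with 10% serum, drug for 72 h over a 256-fold dose range (nine 2-fold or five 4-fold steps up to the top dose). Adherent lines were fixed and stained with the nucleic acid dye Syto60, suspension lines read with resazurin; signal relative to control wells, capped at 0 and 100%. One two-parameter sigmoid per drug and line, fitted in a mixed model over all curves with the slope shared within a line.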

Cell Line	AUC	IC50
MOLT-4 (lymphoblastic leukaemia, suspension, top dose 20 µM)	0.513	1.34 µM
KYSE-140 (oesophagus, adherent, top dose 20 µM)	0.723	5.92 µM
NCI-H720 (lung carcinoid, suspension, top dose 20 µM)	0.992	> 20 µM
SNU-449 (liver, adherent, top dose 20 µM)	0.856	18.6 µM
FLO-1 (oesophagus, adherent, top dose 20 µM)	0.888	> 20 µM
NCI-H69 (small cell lung carcinoma, suspension, top dose 20 µM)	0.932	> 20 µM
HuO-3N1 (osteosarcoma, adherent, top dose 20 µM)	0.842	> 20 µM
LS-513 (large intestine, adherent, top dose 20 µM)	0.649	3.29 µM
RH-1 (rhabdomyosarcoma, adherent, top dose 20 µM)	0.953	> 20 µM
BT-20 (breast, adherent, top dose 20 µM)	0.809	13.7 µM
C32 (melanoma, adherent, top dose 20 µM)	0.971	> 20 µM
SK-GT-4 (oesophagus, adherent, top dose 20 µM)	0.69	4.88 µM
K5 (thyroid, adherent, top dose 20 µM)	0.939	> 20 µM
P30-OHK (lymphoblastic leukaemia, suspension, top dose 20 µM)	0.872	13.8 µM
HLE (liver, adherent, top dose 20 µM)	0.972	> 20 µM
T-24 (bladder, adherent, top dose 20 µM)	0.878	18.7 µM
BV-173 (chronic myeloid leukaemia, suspension, top dose 20 µM)	0.704	4.32 µM
KP-3 (pancreas, adherent, top dose 20 µM)	0.561	1.89 µM
UWB1.289 (ovary, adherent, top dose 20 µM)	0.979	> 20 µM
TE-9 (oesophagus, adherent, top dose 20 µM)	0.953	> 20 µM
OVK-18 (ovary, adherent, top dose 20 µM)	0.963	> 20 µM

Cell Line	AUC	IC50
HCE-4 (oesophagus, adherent, top dose 20 µM)	0.98	> 20 µM
DoTc2-4510 (cervix, adherent, top dose 20 µM)	0.939	> 20 µM
CHSA0011 (chondrosarcoma, adherent, top dose 20 µM)	0.958	> 20 µM
UACC-62 (melanoma, adherent, top dose 20 µM)	0.986	> 20 µM
RPMI-2650 (head and neck, adherent, top dose 20 µM)	0.915	> 20 µM
TE-12 (oesophagus, suspension, top dose 20 µM)	0.899	> 20 µM
OCI-AML5 (acute myeloid leukaemia, suspension, top dose 20 µM)	0.881	17.8 µM
Daudi (Burkitt lymphoma, suspension, top dose 20 µM)	0.978	> 20 µM
EKVX (lung adenocarcinoma, adherent, top dose 20 µM)	0.918	> 20 µM
NB13 (neuroblastoma, adherent, top dose 20 µM)	0.87	15.1 µM
JM1 (B-cell lymphoma, suspension, top dose 20 µM)	0.713	4.52 µM
CAL-54 (kidney, adherent, top dose 20 µM)	0.985	> 20 µM
RERF-GC-1B (stomach, adherent, top dose 20 µM)	0.979	> 20 µM
SBC-5 (small cell lung carcinoma, adherent, top dose 20 µM)	0.993	> 20 µM
Becker (glioma, adherent, top dose 20 µM)	0.952	> 20 µM
RCM-1 (large intestine, adherent, top dose 20 µM)	0.782	10.3 µM
MES-SA (uterus, adherent, top dose 20 µM)	0.823	9.52 µM
HSC-39 (stomach, suspension, top dose 20 µM)	0.844	11.5 µM
TE-4 (oesophagus, adherent, top dose 20 µM)	0.92	> 20 µM
A2780 (ovary, semi-adherent, top dose 20 µM)	0.726	5.64 µM
EM-2 (chronic myeloid leukaemia, suspension, top dose 20 µM)	0.83	14.8 µM

Cell Line	AUC	IC50
HEC-1 (endometrium, adherent, top dose 20 µM)	0.939	> 20 µM
MKN1 (stomach, adherent, top dose 20 µM)	0.804	10.7 µM
MDA-MB-175-VII (breast, adherent, top dose 20 µM)	0.717	5.51 µM
A2058 (melanoma, adherent, top dose 20 µM)	0.778	7.19 µM
PA-1 (ovary, adherent, top dose 20 µM)	0.811	7.89 µM
EGI-1 (biliary tract, adherent, top dose 20 µM)	0.975	> 20 µM
SF295 (glioma, adherent, top dose 20 µM)	0.904	> 20 µM
CHSA8926 (chondrosarcoma, adherent, top dose 20 µM)	0.886	> 20 µM
NCI-H1048 (small cell lung carcinoma, adherent, top dose 20 µM)	0.953	> 20 µM
IPC-298 (melanoma, adherent, top dose 20 µM)	0.947	> 20 µM
LU-134-A (small cell lung carcinoma, suspension, top dose 20 µM)	0.884	> 20 µM
PSN1 (pancreas, adherent, top dose 20 µM)	0.664	3.28 µM
IA-LM (large cell lung carcinoma, adherent, top dose 20 µM)	0.942	> 20 µM
DMS-114 (small cell lung carcinoma, adherent, top dose 20 µM)	0.982	> 20 µM
SU-DHL-4 (B-cell lymphoma, suspension, top dose 20 µM)	0.726	4.41 µM
BICR22 (head and neck, adherent, top dose 20 µM)	0.979	> 20 µM
ONS-76 (medulloblastoma, adherent, top dose 20 µM)	0.951	> 20 µM
NAMALWA (Burkitt lymphoma, suspension, top dose 20 µM)	0.791	7.43 µM
CAL-72 (osteosarcoma, adherent, top dose 20 µM)	0.984	> 20 µM
OE21 (oesophagus, adherent, top dose 20 µM)	0.873	> 20 µM
KARPAS-299 (anaplastic large cell lymphoma, suspension, top dose 20 µM)	0.881	15 µM

Cell Line	AUC	IC50
OVCAR-5 (ovary, adherent, top dose 20 µM)	0.649	3.53 µM
HH (T-cell leukaemia, suspension, top dose 20 µM)	0.721	6.61 µM
QIMR-WIL (acute myeloid leukaemia, suspension, top dose 20 µM)	0.563	1.85 µM
SK-MEL-24 (melanoma, adherent, top dose 20 µM)	0.9	> 20 µM
NCI-H2291 (lung adenocarcinoma, adherent, top dose 20 µM)	0.972	> 20 µM
SU-DHL-5 (B-cell lymphoma, suspension, top dose 20 µM)	0.622	2.47 µM
GDM-1 (acute myeloid leukaemia, suspension, top dose 20 µM)	0.738	5.76 µM
HCT-116 (large intestine, adherent, top dose 20 µM)	0.837	12.5 µM
HDLM-2 (Hodgkin lymphoma, suspension, top dose 20 µM)	0.837	13.1 µM
SW756 (cervix, adherent, top dose 20 µM)	0.985	> 20 µM
GCIY (stomach, adherent, top dose 20 µM)	0.971	> 20 µM
TYK-nu (ovary, adherent, top dose 20 µM)	0.72	5.54 µM
HSC-3 (head and neck, adherent, top dose 20 µM)	0.965	> 20 µM
OCI-LY-19 (B-cell lymphoma, suspension, top dose 20 µM)	0.847	13.1 µM
MS-1 (small cell lung carcinoma, suspension, top dose 20 µM)	0.933	> 20 µM
JJN-3 (haematopoietic neoplasm, suspension, top dose 20 µM)	0.893	16.2 µM
DMS-273 (small cell lung carcinoma, adherent, top dose 20 µM)	0.826	13 µM
HT-144 (melanoma, adherent, top dose 20 µM)	0.981	> 20 µM
